Test [1] concerns the target T1, Rnr2 fused to Gal4 activating domain (S. cerevisiae) (UniProt P09938).
T1 sequence: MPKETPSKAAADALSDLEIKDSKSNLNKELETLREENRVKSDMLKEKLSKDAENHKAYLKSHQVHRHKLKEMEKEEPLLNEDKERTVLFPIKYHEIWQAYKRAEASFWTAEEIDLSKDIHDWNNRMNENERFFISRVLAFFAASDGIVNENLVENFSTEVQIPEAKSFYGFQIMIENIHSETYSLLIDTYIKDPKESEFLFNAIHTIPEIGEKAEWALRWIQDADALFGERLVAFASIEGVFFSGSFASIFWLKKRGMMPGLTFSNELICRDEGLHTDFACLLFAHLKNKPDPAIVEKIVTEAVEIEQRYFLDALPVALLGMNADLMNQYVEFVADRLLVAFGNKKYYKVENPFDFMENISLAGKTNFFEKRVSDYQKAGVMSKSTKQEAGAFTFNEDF
Description: two-hybrid; data not shown; Rnr2 and Rnr4 as two-hybrid fusions against themselves and each other.

Test [2] concerns the target T2, Hug1 R29A (M3) fused to Gal4 DNA-binding domain (S. cerevisiae) (UniProt Q6Q5K6).
T2 sequence: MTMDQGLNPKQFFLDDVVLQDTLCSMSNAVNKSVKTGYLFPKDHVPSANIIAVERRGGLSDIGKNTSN
The experiment in a line: two-hybrid; Hug1 (wild type or mutant) fused to Gal4-DBD (bait, pGBT9), Rnr2, Rnr4 or Dna2 fused to Gal4-AD (prey, pACT2); diploids; HIS3 reporter on 3AT and LacZ reporter with X-gal.

Test [3] has as its target T3, Hug1 N31A K32A S33A (M1) fused to Gal4 DNA-binding domain (S. cerevisiae) (UniProt Q6Q5K6).
T3 sequence: T2 sequence with A29R, N31A, K32A, S33A
Described as above.

In test [4] the target is T4, Hug1 Y38E L39E (M4), two-hybrid fusion (S. cerevisiae) (UniProt Q6Q5K6).
T4 sequence: T2 sequence with A29R, Y38E, L39E
Described as above.

Test [5] deals with T5, Hug1 G37A Y38A (M2) fused to Gal4 DNA-binding domain (S. cerevisiae) (UniProt Q6Q5K6).
T5 sequence: T2 sequence with A29R, G37A, Y38A
The test is described as above.

The target in test [6] is T6, Hug1 fused to Gal4 DNA-binding domain (S. cerevisiae) (UniProt Q6Q5K6).
T6 sequence: T2 sequence with A29R
Described as above.

Test [7] concerns the target T7, Hug1 I50E I51E (M5), two-hybrid fusion (S. cerevisiae) (UniProt Q6Q5K6).
T7 sequence: T2 sequence with A29R, I50E, I51E
The description is as above.

Test [8] addresses T8, (His)6-GST-TEV site-Hug1 (S. cerevisiae) (UniProt Q6Q5K6).
T8 sequence: T2 sequence with A29R
Description: pull-down; His6-GST-Hug1 from E. coli soluble extract on Glutathione-agarose; His6-Rnr2 or His6-Rnr2-Rnr4 added; elution with GSH; western blot with anti-His.

Test [9] deals with T9, (His)6-Rnr2 (S. cerevisiae) (UniProt P09938).
T9 sequence: T1 sequence
The experiment in a line: co-purification; (His)6-Rnr2 and Rnr4 produced in E. coli, held on Ni-NTA agarose, then anion exchange (Tris 50 mM pH 8, NaCl gradient).

Test [10] has as its target Rnr4 fused to Gal4 activating domain (S. cerevisiae) (UniProt P49723). The experiment in a line: two-hybrid; data not shown; Rnr2 and Rnr4 as two-hybrid fusions against themselves and each other.

Experimental findings from article PMC4245953, “Hug1 is an intrinsically disordered protein that inhibits ribonucleotide reductase activity by directly binding Rnr2 subunit” (Nucleic Acids Research, 2014) are described below.

Residue numbers refer to the chain shown, from its start. Results are given in words; binding and its absence hold for the method and conditions named. For some of these results: In cells and extracts the contact can be indirect. Some entries that bind do so weakly or less than the wild type. Sequences can lack the tags named with a protein.

B1: Rnr2 fused to Gal4 activating domain (protein, UniProt P09938 1-399)
chain: T1 sequence
Turning to B1, the binding entry in test [1] is given as “binds”; in test [2], “no binding”; in [3] it was “binds”; in test [4], “no binding”; in [5], “no binding”; in [6], “binds”. For the same molecule, the binding result in test [7] is on record as “no binding”.

B2: (His)6-Rnr2-Rnr4 complex (complex, UniProt P09938 1-399; P49723 1-345)
chain 1: T1 sequence
chain 2: MEAHNQFLKTFQKERHDMKEAEKDEILLMENSRRFVMFPIKYHEIWAAYKKVEASFWTAEEIELAKDTEDFQKLTDDQKTYIGNLLALSISSDNLVNKYLIENFSAQLQNPEGKSFYGFQIMMENIYSEVYSMMVDAFFKDPKNIPLFKEIANLPEVKHKAAFIERWISNDDSLYAERLVAFAAKEGIFQAGNYASMFWLTDKKIMPGLAMANRNICRDRGAYTDFSCLLFAHLRTKPNPKIIEKIITEAVEIEKEYYSNSLPVEKFGMDLKSIHTYIEFVADGLLQGFGNEKYYNAVNPFEFMEDVATAGKTTFFEKKVSDYQKASDMSKSATPSKEINFDDDF
B2: the binding entry in [8] was “binds”.

B3: (His)6-Rnr2 (protein, UniProt P09938 1-399)
chain: T1 sequence
Consider B3, for which the binding result in test [8] is on record as “binds”.

B4: Rnr4 (recombinant, co-expressed with (His)6-Rnr2) (protein, UniProt P49723 1-345)
chain: B2 chain 2
Turning to B4, the binding entry in [9] is reported as “binds”.

B5: Rnr4 fused to Gal4 activating domain (protein, UniProt P49723 1-345)
chain: B2 chain 2
On to B5, for which the results for the binding result in test [10], in test [1] and in test [6] were “binds”, “binds” and “no binding”, respectively.
